# From the BET-seq Pho4 binding data (Le et al. 2018)
# This is one part of the list. The energies were worked out here from pooled read counts, against the library average; single values are noisy.
# Biological target: T1, Pho4 (S. cerevisiae) (UniProt P07270)
# T1 sequence: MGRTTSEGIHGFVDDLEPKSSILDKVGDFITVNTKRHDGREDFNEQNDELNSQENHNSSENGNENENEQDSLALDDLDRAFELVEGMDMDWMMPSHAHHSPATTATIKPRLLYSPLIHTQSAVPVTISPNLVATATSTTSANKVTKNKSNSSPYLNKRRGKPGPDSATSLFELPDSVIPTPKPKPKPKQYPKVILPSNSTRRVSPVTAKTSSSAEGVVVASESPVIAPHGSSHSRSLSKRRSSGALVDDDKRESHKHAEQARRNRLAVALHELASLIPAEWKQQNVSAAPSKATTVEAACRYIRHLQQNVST
# Experiment: relative binding free energy (BET-seq); higher = weaker binding
# Settings: reference: library average
row,Sequence,relative binding free energy
1,CGGGACACGTGAATGT,0.42 kcal/mol
2,GTTGACACGTGAATGT,0.17 kcal/mol
3,ATTGCCACGTGGGTAA,-0.21 kcal/mol
4,AACATCACGTGGTTGT,0.16 kcal/mol
5,GCGGGCACGTGGAGTG,-0.06 kcal/mol
6,AAGTGCACGTGATGAT,0.08 kcal/mol
7,GTCATCACGTGGGGGG,0.07 kcal/mol
8,GTGAACACGTGGATTG,0 kcal/mol
9,GACTGCACGTGGGGTA,-0.11 kcal/mol
10,GGAGTCACGTGTCTGT,0.26 kcal/mol
11,GAATGCACGTGTTTTT,0.16 kcal/mol
12,GGGTTCACGTGGTACA,0.25 kcal/mol
13,AGTGACACGTGAGTGT,0.24 kcal/mol
14,TAAGTCACGTGAGAGT,0.53 kcal/mol
15,GTAGACACGTGTTAGG,0.08 kcal/mol
16,GTGATCACGTGTTTTA,0.24 kcal/mol
17,ACGTGCACGTGGGAAG,-0.06 kcal/mol
18,GTTCGCACGTGCGGAT,0.07 kcal/mol
19,CAGGACACGTGTTAGG,0.1 kcal/mol
20,CAAGGCACGTGTTGTA,0.04 kcal/mol
21,GGATACACGTGGGGGC,-0.12 kcal/mol
22,CGTTTCACGTGTATAT,0.35 kcal/mol
23,GGACGCACGTGTTTGA,0.02 kcal/mol
24,ATTGGCACGTGCTGGG,-0.17 kcal/mol
25,TGTATCACGTGGCTGA,-0.06 kcal/mol
26,TGTTTCACGTGGGCTT,0.16 kcal/mol

row,Sequence,relative binding free energy
1,GGATGCACGTGTGGGG,0.13 kcal/mol
2,ACGATCACGTGTTTTT,0.17 kcal/mol
3,GGTAGCACGTGTTTGC,0.02 kcal/mol
4,TCAGTCACGTGAGTAG,0.38 kcal/mol
5,TATTGCACGTGGTTGC,-0.12 kcal/mol
6,TGCTGCACGTGTGTCG,-0.15 kcal/mol
7,AGGTGCACGTGCCGTT,-0.23 kcal/mol
8,AGTGTCACGTGCTGAG,0.08 kcal/mol
9,TTATGCACGTGGTTTC,-0.28 kcal/mol
10,GTGAGCACGTGTTTAT,-0.12 kcal/mol
11,ATGATCACGTGGGGGT,-0.09 kcal/mol
12,TTTACCACGTGAAGGG,0.21 kcal/mol
13,TTCATCACGTGGTGGA,0.13 kcal/mol
14,AAGTTCACGTGTCGGT,0.18 kcal/mol
15,TATTGCACGTGGAGTA,-0.16 kcal/mol
16,GTAGGCACGTGTGGCT,0.1 kcal/mol
17,GTTTGCACGTGCTGTG,0.01 kcal/mol
18,ATTGGCACGTGTATGG,-0.1 kcal/mol
19,TGGATCACGTGCGCGG,0.07 kcal/mol
20,AATTGCACGTGGTACG,-0.1 kcal/mol
21,TGTTGCACGTGCGGCC,-0.01 kcal/mol
22,TTGGCCACGTGTTGCG,-0.09 kcal/mol
23,GAAGTCACGTGGGGAC,0.09 kcal/mol
24,GTTTGCACGTGTGCTT,0.09 kcal/mol
25,TGCGGCACGTGCTTGT,-0.13 kcal/mol
26,ATTGTCACGTGAGATA,0.2 kcal/mol

row,Sequence,relative binding free energy
1,ATTTACACGTGCGTGA,0.06 kcal/mol
2,CAGGGCACGTGGTCGT,-0.29 kcal/mol
3,TCGGTCACGTGTTTTG,0.09 kcal/mol
4,GTGGTCACGTGATTCT,0.31 kcal/mol
5,TTAACCACGTGGTTTG,-0.09 kcal/mol
6,TGTTTCACGTGACCTG,0.31 kcal/mol
7,GGAAACACGTGATAGG,0.27 kcal/mol
8,AGTGTCACGTGACATT,0.18 kcal/mol
9,TCGGTCACGTGGCTTG,-0.04 kcal/mol
10,AGAGACACGTGTTAAG,0.1 kcal/mol
11,GGGGGCACGTGGTCAA,-0.12 kcal/mol
12,GGTATCACGTGCGGTA,0.1 kcal/mol
13,CGTGGCACGTGCGTGA,-0.07 kcal/mol
14,TAGATCACGTGGGCGG,0.14 kcal/mol
15,GAAAGCACGTGATGGT,0.18 kcal/mol
16,CTGTACACGTGTGTTT,0.22 kcal/mol
17,GGATTCACGTGATGGT,0.42 kcal/mol
18,GATAGCACGTGGCGTA,-0.07 kcal/mol
19,GTGCACACGTGGTGAA,0.14 kcal/mol
20,AATGGCACGTGGTAGA,-0.26 kcal/mol
21,AAGGGCACGTGTTTCG,-0.09 kcal/mol
22,AGTTACACGTGGGCGG,0.04 kcal/mol
23,CGGGACACGTGTGGCG,0.05 kcal/mol
24,GACGGCACGTGTTGCG,0.11 kcal/mol
25,AAGGTCACGTGGATTT,0.29 kcal/mol
26,TGGTACACGTGTGTTG,0.11 kcal/mol

row,Sequence,relative binding free energy
1,TGGGACACGTGGAGAA,0.23 kcal/mol
2,GGGGGCACGTGTAAGG,0.06 kcal/mol
3,GCAATCACGTGGTGGA,0.21 kcal/mol
4,ACGGACACGTGATGGT,0.14 kcal/mol
5,GGAAGCACGTGACGTG,0.08 kcal/mol
6,TTCGACACGTGTGGGT,0.16 kcal/mol
7,GTGAGCACGTGGTGTC,-0.19 kcal/mol
8,TAGCACACGTGAGTTG,0.18 kcal/mol
9,ACTGTCACGTGTCTGG,0.15 kcal/mol
10,GCTTTCACGTGTAAGT,0.26 kcal/mol
11,GCTTGCACGTGTAGGG,0.08 kcal/mol
12,AAGTGCACGTGTACTG,0 kcal/mol
13,TTAAGCACGTGCATTG,-0.14 kcal/mol
14,ATGGACACGTGTGTCA,0.01 kcal/mol
15,TAGAACACGTGGGTAG,-0.08 kcal/mol
16,GTAGTCACGTGTTATC,0.19 kcal/mol
17,TTTGTCACGTGATGAT,0.22 kcal/mol
18,GTTTGCACGTGGGCAT,-0.13 kcal/mol
19,TGAATCACGTGTGGAT,0.29 kcal/mol
20,ATGCGCACGTGGTGTT,-0.16 kcal/mol
21,CTTGTCACGTGGTGCT,-0.02 kcal/mol
22,GAGTGCACGTGTATTG,0.02 kcal/mol
23,TTGCTCACGTGCGTGG,0.05 kcal/mol
24,ATTAACACGTGGGACG,0.07 kcal/mol
25,GCAATCACGTGGTTAG,0.25 kcal/mol
26,GCTTTCACGTGTGTTA,0.44 kcal/mol

row,Sequence,relative binding free energy
1,AGTGTCACGTGCGCGG,-0.11 kcal/mol
2,TATGGCACGTGAAGGA,0.23 kcal/mol
3,AGGGCCACGTGGGCAG,-0.16 kcal/mol
4,GTGGGCACGTGCTTGA,-0.14 kcal/mol
5,TTATTCACGTGTTCTA,0.07 kcal/mol
6,GTTAGCACGTGTCATT,0 kcal/mol
7,GTGTTCACGTGTACTA,0.14 kcal/mol
8,TCGTGCACGTGAAGGG,0.17 kcal/mol
9,AATTACACGTGGCTGT,0.14 kcal/mol
10,GCGAGCACGTGCGGGT,-0.22 kcal/mol
11,TAAATCACGTGGTTTA,0.05 kcal/mol
12,GTGTACACGTGGGGAA,0.11 kcal/mol
13,GAATGCACGTGGGTCG,-0.24 kcal/mol
14,GTTGCCACGTGGGCGG,-0.18 kcal/mol
15,GTGTTCACGTGTGCTT,0.15 kcal/mol
16,TTATGCACGTGAGGTC,0.24 kcal/mol
17,GGCGTCACGTGATGGC,0.22 kcal/mol
18,GATTACACGTGGGTGA,0.07 kcal/mol
19,CATTGCACGTGTGTAA,0.1 kcal/mol
20,TGTAACACGTGGATTA,-0.01 kcal/mol
21,ATGGGCACGTGGTTGC,-0.17 kcal/mol
22,AAGGACACGTGGGGTA,-0.12 kcal/mol
23,TGTTTCACGTGATTGC,0.29 kcal/mol
24,GAATGCACGTGATAAG,0.31 kcal/mol
25,AGTGCCACGTGTTTAG,0 kcal/mol
26,GGTCTCACGTGATTTA,0.24 kcal/mol

row,Sequence,relative binding free energy
1,TTAAACACGTGATTGA,0.09 kcal/mol
2,TGTTGCACGTGGAGTA,-0.03 kcal/mol
3,TGCTTCACGTGTTTTC,0.3 kcal/mol
4,TGATTCACGTGCATGT,0.24 kcal/mol
5,GGGTGCACGTGTAGCG,0.08 kcal/mol
6,ATCGTCACGTGGAGGG,0.16 kcal/mol
7,CATGCCACGTGGGGGC,-0.13 kcal/mol
8,TTGCGCACGTGGAGTG,-0.16 kcal/mol
9,AGTGTCACGTGGCTTC,0.17 kcal/mol
10,TTTTTCACGTGGCTGC,0.33 kcal/mol
11,TTTCCCACGTGTTGTG,0 kcal/mol
12,CGTGTCACGTGTAGAT,0.21 kcal/mol
13,ATGTTCACGTGTGAAC,0.35 kcal/mol
14,TGTACCACGTGCGTTT,-0.06 kcal/mol
15,TGTAGCACGTGTCTGT,-0.3 kcal/mol
16,TCGGCCACGTGGGGTG,-0.23 kcal/mol
17,GTTTACACGTGGCGGA,0.09 kcal/mol
18,TGATACACGTGTAGGA,-0.08 kcal/mol
19,GTAAACACGTGAGAGT,0.33 kcal/mol
20,TTGAGCACGTGCGGAT,-0.18 kcal/mol
21,AGCGTCACGTGGTTAG,-0.06 kcal/mol
22,CGGTGCACGTGAGATT,0.32 kcal/mol
23,TGTTGCACGTGGTGTC,-0.14 kcal/mol
24,ATGATCACGTGTGGAG,0.16 kcal/mol
25,TCTGTCACGTGGATTT,0.25 kcal/mol
26,GTGCTCACGTGTTGTT,0.27 kcal/mol

row,Sequence,relative binding free energy
1,AGTAACACGTGGGGCT,-0.25 kcal/mol
2,TGCTACACGTGTTAGT,-0.01 kcal/mol
3,TCTACCACGTGGGGGT,-0.18 kcal/mol
4,TGGAGCACGTGTCTAG,0.04 kcal/mol
5,GCAATCACGTGGGTGA,0.07 kcal/mol
6,TGTGGCACGTGCTCTA,-0.12 kcal/mol
7,GAAGACACGTGTTGTT,-0.03 kcal/mol
8,ATGTCCACGTGTGGCG,0.02 kcal/mol
9,ATTTCCACGTGTGTTA,0.17 kcal/mol
10,CATGGCACGTGTGAGA,-0.03 kcal/mol
11,GTTGTCACGTGACGTG,0.2 kcal/mol
12,GGTGCCACGTGTGCGG,-0.1 kcal/mol
13,CGTAGCACGTGGGGAT,-0.13 kcal/mol
14,TTCAGCACGTGGGGCA,-0.24 kcal/mol
15,GGATACACGTGTTTGC,0.12 kcal/mol
16,GTTGACACGTGGAGAG,-0.05 kcal/mol
17,GGGGTCACGTGTTTGT,0.15 kcal/mol
18,ATGTGCACGTGTGGTC,-0.02 kcal/mol
19,TTATGCACGTGGAGCG,-0.08 kcal/mol
20,GTTGGCACGTGCTCTT,-0.06 kcal/mol
21,GTTACCACGTGTTGTT,0.03 kcal/mol
22,TTATGCACGTGTATGA,0.02 kcal/mol
23,TCTTACACGTGGGGGT,-0.08 kcal/mol
24,ATTTACACGTGGGATA,-0.05 kcal/mol
25,AGCTACACGTGTGTGG,0.09 kcal/mol
26,CGGGCCACGTGTAGGT,0.03 kcal/mol

row,Sequence,relative binding free energy
1,TTTTACACGTGCGCGT,-0.07 kcal/mol
2,GGTAGCACGTGGGGGA,-0.07 kcal/mol
3,ATGTTCACGTGACTAG,0.33 kcal/mol
4,GTGACCACGTGGGGGA,-0.05 kcal/mol
5,GTCTGCACGTGAGTGT,0.2 kcal/mol
6,TGGTCCACGTGAGTTT,0.2 kcal/mol
7,ATAATCACGTGTGAGG,0.03 kcal/mol
8,TTGCACACGTGTGTAG,-0.01 kcal/mol
9,AGGTTCACGTGGTCCT,0.3 kcal/mol
10,TTGCACACGTGTCGGG,0.04 kcal/mol
11,CTTGTCACGTGTATGC,0.02 kcal/mol
12,ATAGGCACGTGGGAAA,-0.15 kcal/mol
13,GGGTGCACGTGGAGGG,0 kcal/mol
14,GGGAGCACGTGGGTGT,-0.1 kcal/mol
15,GTATGCACGTGATGGC,0.11 kcal/mol
16,ATCTGCACGTGGGTTG,-0.13 kcal/mol
17,CGGTGCACGTGGTGGG,-0.08 kcal/mol
18,TTGTACACGTGTTTCG,0.04 kcal/mol
19,GCGGGCACGTGCAAGG,-0.09 kcal/mol
20,ATACTCACGTGGGTGA,0.11 kcal/mol
21,TTCTTCACGTGGTATC,0.36 kcal/mol
22,ATGGTCACGTGTGGAA,0.28 kcal/mol
23,TTGGTCACGTGCTTAT,0.05 kcal/mol
24,ATAGTCACGTGTATGG,0.05 kcal/mol
25,TAGGGCACGTGGGGTC,-0.31 kcal/mol
26,TTGGTCACGTGATAAA,0.26 kcal/mol

row,Sequence,relative binding free energy
1,GTGGCCACGTGTGGGA,-0.06 kcal/mol
2,TGAGGCACGTGGCCTT,-0.21 kcal/mol
3,AGGATCACGTGTGTGA,0.28 kcal/mol
4,TTATGCACGTGGCCTG,-0.17 kcal/mol
5,TTCAGCACGTGTATAT,-0.06 kcal/mol
6,GGATGCACGTGGAGTT,0.17 kcal/mol
7,GGTATCACGTGGGAAA,0.08 kcal/mol
8,ATCATCACGTGTGTGT,0.12 kcal/mol
9,GTTAGCACGTGGTTAT,-0.01 kcal/mol
10,GCGTTCACGTGGGGAG,0.21 kcal/mol
11,GAGATCACGTGTATGG,0.19 kcal/mol
12,TAGTGCACGTGTGTAC,-0.08 kcal/mol
13,AGGTACACGTGGCCGG,0.02 kcal/mol
14,TGAAGCACGTGCTGTA,-0.1 kcal/mol
15,GTGCGCACGTGGTGGC,-0.06 kcal/mol
16,ATCTTCACGTGATTGT,0.31 kcal/mol
17,AGTTACACGTGTACTG,0.22 kcal/mol
18,GTGGTCACGTGGGATC,0.1 kcal/mol
19,AAGGCCACGTGTAGGG,-0.09 kcal/mol
20,CGATACACGTGTTGTT,0.11 kcal/mol
21,CTTGGCACGTGCTGTG,-0.29 kcal/mol
22,TCGGTCACGTGGGTTC,0.02 kcal/mol
